# Laboratory results published in PMC3930761.
# By UniProt entry, the sequences of proteins in these tests, tags left out. Where a name states a change or a piece, a line headed by the entry shows the natural chain unless it says otherwise. Residues count along the entry.
# UniProt Q09472: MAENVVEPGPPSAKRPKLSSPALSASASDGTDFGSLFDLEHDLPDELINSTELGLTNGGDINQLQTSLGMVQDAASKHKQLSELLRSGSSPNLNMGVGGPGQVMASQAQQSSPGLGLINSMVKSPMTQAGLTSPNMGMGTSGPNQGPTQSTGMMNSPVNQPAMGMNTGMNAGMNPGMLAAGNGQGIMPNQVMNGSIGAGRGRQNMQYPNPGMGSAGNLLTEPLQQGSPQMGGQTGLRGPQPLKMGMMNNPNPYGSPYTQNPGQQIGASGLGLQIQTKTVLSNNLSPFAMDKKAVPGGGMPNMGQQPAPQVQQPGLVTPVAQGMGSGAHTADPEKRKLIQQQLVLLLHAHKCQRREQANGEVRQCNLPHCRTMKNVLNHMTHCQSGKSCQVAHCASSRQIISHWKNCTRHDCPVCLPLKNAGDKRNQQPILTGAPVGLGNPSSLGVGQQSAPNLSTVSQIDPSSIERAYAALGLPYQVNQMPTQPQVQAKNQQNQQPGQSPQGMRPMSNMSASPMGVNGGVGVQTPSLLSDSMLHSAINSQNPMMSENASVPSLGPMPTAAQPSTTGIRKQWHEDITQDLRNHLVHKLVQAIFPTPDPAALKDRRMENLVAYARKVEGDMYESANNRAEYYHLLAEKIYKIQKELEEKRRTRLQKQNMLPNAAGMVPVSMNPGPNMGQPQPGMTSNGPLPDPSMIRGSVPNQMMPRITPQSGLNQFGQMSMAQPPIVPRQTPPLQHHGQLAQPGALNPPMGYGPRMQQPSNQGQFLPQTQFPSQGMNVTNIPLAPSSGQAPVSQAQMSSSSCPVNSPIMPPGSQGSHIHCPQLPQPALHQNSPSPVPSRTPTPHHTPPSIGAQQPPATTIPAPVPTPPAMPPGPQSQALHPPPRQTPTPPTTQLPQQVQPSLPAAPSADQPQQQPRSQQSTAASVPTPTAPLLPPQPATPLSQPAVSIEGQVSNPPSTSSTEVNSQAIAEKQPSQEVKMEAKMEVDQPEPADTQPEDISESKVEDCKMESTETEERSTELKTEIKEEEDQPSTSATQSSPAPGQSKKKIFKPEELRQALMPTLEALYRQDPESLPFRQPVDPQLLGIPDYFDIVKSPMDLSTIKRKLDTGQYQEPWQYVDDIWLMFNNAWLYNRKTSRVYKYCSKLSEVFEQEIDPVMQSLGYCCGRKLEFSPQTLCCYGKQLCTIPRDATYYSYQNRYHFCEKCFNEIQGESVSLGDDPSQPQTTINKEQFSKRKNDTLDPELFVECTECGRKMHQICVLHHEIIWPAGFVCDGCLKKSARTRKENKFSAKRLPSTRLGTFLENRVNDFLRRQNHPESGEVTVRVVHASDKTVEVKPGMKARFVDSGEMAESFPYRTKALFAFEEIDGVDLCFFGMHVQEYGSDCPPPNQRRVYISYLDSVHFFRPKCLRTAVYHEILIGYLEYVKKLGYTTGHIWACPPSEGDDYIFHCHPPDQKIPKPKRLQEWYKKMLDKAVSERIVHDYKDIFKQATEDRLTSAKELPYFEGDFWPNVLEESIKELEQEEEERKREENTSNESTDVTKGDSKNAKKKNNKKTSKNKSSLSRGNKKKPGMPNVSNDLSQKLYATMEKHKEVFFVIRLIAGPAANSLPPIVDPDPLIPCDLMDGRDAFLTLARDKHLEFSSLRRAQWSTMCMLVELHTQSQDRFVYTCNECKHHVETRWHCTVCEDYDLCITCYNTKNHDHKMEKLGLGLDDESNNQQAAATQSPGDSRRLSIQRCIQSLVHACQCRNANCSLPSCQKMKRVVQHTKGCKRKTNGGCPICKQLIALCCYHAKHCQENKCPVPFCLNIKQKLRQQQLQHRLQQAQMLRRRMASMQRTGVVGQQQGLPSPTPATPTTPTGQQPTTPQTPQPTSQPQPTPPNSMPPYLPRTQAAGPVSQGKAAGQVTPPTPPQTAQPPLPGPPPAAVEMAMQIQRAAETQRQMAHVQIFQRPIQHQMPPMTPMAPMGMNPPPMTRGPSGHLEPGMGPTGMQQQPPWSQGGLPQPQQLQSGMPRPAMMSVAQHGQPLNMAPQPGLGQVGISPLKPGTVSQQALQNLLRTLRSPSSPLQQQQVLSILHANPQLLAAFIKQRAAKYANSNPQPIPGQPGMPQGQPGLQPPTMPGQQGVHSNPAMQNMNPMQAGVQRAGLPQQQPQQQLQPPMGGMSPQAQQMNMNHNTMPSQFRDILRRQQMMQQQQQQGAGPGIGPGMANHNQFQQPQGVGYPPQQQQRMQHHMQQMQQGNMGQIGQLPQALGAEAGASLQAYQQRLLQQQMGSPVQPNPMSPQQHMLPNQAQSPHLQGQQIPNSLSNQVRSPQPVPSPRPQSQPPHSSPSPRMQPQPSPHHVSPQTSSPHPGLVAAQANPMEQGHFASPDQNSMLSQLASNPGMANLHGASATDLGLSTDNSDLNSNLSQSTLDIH
# p300ΔC-820 (endogenous, SUDHL2 cells) (human (endogenous in SUDHL2)): residues 1-820 of Q09472
# GST-p300-CH1 (aa 300-528): residues 300-528 of Q09472
# GST-p300-N340 (aa 340-528): residues 340-528 of Q09472
# These are yes or no findings as the source states them, for the method shown. In cells and extracts the contact can be indirect. Some results given as binding are weak or reduced against the parent protein; the word gives no strength. For some assays here: Where a sequence is shown, tags or fusion partners need not be part of it.
# T1: GST-REL-TAD (aa 324-587) (UniProt Q04864)
# T1 sequence: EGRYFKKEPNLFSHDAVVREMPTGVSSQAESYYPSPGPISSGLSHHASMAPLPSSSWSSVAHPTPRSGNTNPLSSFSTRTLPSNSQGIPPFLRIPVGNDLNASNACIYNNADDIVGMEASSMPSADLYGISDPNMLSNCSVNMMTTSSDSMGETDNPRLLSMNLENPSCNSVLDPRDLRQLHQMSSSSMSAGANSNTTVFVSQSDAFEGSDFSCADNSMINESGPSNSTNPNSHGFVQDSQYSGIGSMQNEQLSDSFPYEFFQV
# B1: REL (endogenous, SUDHL2 cells) (protein, UniProt Q04864 1-619)
# chain: MASGAYNPYIEIIEQPRQRGMRFRYKCEGRSAGSIPGEHSTDNNRTYPSIQIMNYYGKGKVRITLVTKNDPYKPHPHDLVGKDCRDGYYEAEFGQERRPLFFQNLGIRCVKKKEVKEAIITRIKAGINPFNVPEKQLNDIEDCDLNVVRLCFQVFLPDEHGNLTTALPPVVSNPIYDNRAPNTAELRICRVNKNCGSVRGGDEIFLLCDKVQKDDIEVRFVLNDWEAKGIFSQADVHRQVAIVFKTPPYCKAITEPVTVKMQLRRPSDQEVSESMDFRYLPDEKDTYGNKAKKQKTTLLFQKLCQDHVETGFRHVDQDGLELLTSGDPPTLASQSAGITVNFPERPRPGLLGSIGEGRYFKKEPNLFSHDAVVREMPTGVSSQAESYYPSPGPISSGLSHHASMAPLPSSSWSSVAHPTPRSGNTNPLSSFSTRTLPSNSQGIPPFLRIPVGNDLNASNACIYNNADDIVGMEASSMPSADLYGISDPNMLSNCSVNMMTTSSDSMGETDNPRLLSMNLENPSCNSVLDPRDLRQLHQMSSSSMSAGANSNTTVFVSQSDAFEGSDFSCADNSMINESGPSNSTNPNSHGFVQDSQYSGIGSMQNEQLSDSFPYEFFQV
# Tests used:
# GST-REL-TAD (aa 324-587) = biological target: T1, GST-REL-TAD (aa 324-587); assay: pull-down; GST fusion protein as bait, incubated with whole-cell extracts (SUDHL2 or A293); bound proteins detected by anti-p300 or anti-REL Western blotting; done as in ref. 10; only the target purified
# [1] = biological target: GST-p300-CH1 (aa 300-528) (UniProt Q09472); assay: as above
# [2] = biological target: GST-p300-N340 (aa 340-528) (UniProt Q09472); assay: as above
# [3] = biological target: p300ΔC-820 (endogenous, SUDHL2 cells) (human (endogenous in SUDHL2)) (UniProt Q09472); assay: co-IP; endogenous proteins; SUDHL2 nuclear extract (250 μg) with anti-p300 antiserum in IP Low Buffer 3 h at 4°C, Protein A Sepharose; anti-REL and anti-p300 Western blotting
Molecule,binding (GST-REL-TAD (aa 324-587)),binding [1],binding [2],binding [3]
"p300ΔC-820 (endogenous, SUDHL2 cells) (from UniProt Q09472 1-820)",binds,,,
"wild-type p300 (endogenous, A293 cells) (from UniProt Q09472 1-2414)",binds,,,
B1,,binds,no binding,binds
